# Assay results from the antibiotic and cytotoxicity screens of Wong et al. (2023).
# The list shows a part of the results.
# How the values were obtained:
# HSkMC = human skeletal muscle cells; test: cytotoxicity call (relative viability < 0.9); conditions: 10 µM
# S. aureus RN4220 = test: growth inhibition call (relative growth <= 0.2); conditions: 50 µM
SMILES,cytotoxicity call (HSkMC),growth inhibition call (S. aureus RN4220)
O=C(O)c1ccc[nH]1,inactive,inactive
C[C@H](CO)N1C[C@H](C)[C@@H](CN(C)Cc2cccc(C(F)(F)F)c2)OCc2ccccc2-c2ccccc2C1=O,inactive,inactive
CC(=O)O[C@@H]1CC[C@@]2(C)[C@@H](CC[C@]3(C)[C@@H]2C(=O)C=C2[C@@H]4[C@@H](C)[C@H](C)CC[C@]4(C)CC[C@]23C)[C@@]1(C)C(=O)O,inactive,active
Cc1noc(C)c1S(=O)(=O)Nc1cccc2c1O[C@H](CN(C)C(=O)Nc1ccc3c(c1)OCO3)[C@H](C)CN([C@@H](C)CO)C2=O,inactive,inactive
C[C@H]1CN([C@@H](C)CO)C(=O)c2cc(NC(=O)Nc3ccc(C(F)(F)F)cc3)ccc2O[C@@H]1CN(C)S(C)(=O)=O,inactive,inactive
C[C@@H]1CN([C@@H](C)CO)C(=O)c2cc(NC(=O)Cc3ccccc3)ccc2O[C@@H]1CN(C)C(=O)Nc1cccc2ccccc12,inactive,inactive
O=C(O)C1CCOCC1,inactive,inactive
Cc1ccc(S[C@]2(C(=O)NCc3ccccc3)CC(=O)N(Cc3ccccc3C(F)(F)F)[C@@H]2c2ccc(CO)cc2I)cc1,inactive,inactive
C[C@@H]1CCCCO[C@@H](CN(C)C(=O)Nc2ccc(F)cc2)[C@H](C)CN([C@H](C)CO)C(=O)c2cc(NC(=O)NC3CCCCC3)ccc2O1,inactive,inactive
COc1ccc(CN(C)C[C@@H]2Oc3c(NC(=O)c4cnccn4)cccc3C(=O)N([C@@H](C)CO)C[C@H]2C)cc1,inactive,inactive
Cc1ccc(S(=O)(=O)Nc2ccc3c(c2)CC(=O)N([C@@H](C)CO)C[C@H](C)[C@H](CN(C)Cc2ccc(-c4ccccc4)cc2)O3)cc1,active,inactive
C[C@H]1CCCCO[C@@H](CN(C)S(=O)(=O)c2ccc(F)cc2)[C@@H](C)CN([C@@H](C)CO)C(=O)c2cc(NC(=O)Nc3cccc4ccccc34)ccc2O1,inactive,inactive
Cc1ccc(S(=O)(=O)Nc2ccc3c(c2)C(=O)N([C@@H](C)CO)C[C@H](C)[C@@H](CN(C)C(=O)Nc2cccc4ccccc24)OCCCC[C@@H](C)O3)cc1,inactive,inactive
C[C@H](CO)N1C[C@H](C)[C@@H](CN(C)CC2CCCCC2)Oc2ccc(NC(=O)Nc3ccccc3)cc2C1=O,inactive,inactive
C[C@@H]1CN([C@H](C)CO)C(=O)c2cccc(NC(=O)c3ccncc3)c2O[C@H]1CN(C)S(=O)(=O)c1ccc(F)cc1,inactive,inactive
CC(C)C[C@H](NP(=O)(O)O[C@H]1O[C@@H](C)[C@@H](O)[C@@H](O)[C@@H]1O)C(=O)N[C@H](Cc1c[nH]c2ccccc12)C(=O)O,inactive,inactive
C[C@H]1CN([C@@H](C)CO)C(=O)c2cc(NC(=O)Cn3cnnn3)ccc2O[C@@H]1CN(C)S(C)(=O)=O,inactive,inactive
COc1ccc(S(=O)(=O)N(C)C[C@@H]2Oc3ccc(NS(=O)(=O)c4ccccc4)cc3C(=O)N([C@@H](C)CO)C[C@@H]2C)cc1,inactive,inactive
COc1ccc(S(=O)(=O)N(C)C[C@H]2Oc3ccc(NC(=O)CCN4CCOCC4)cc3C(=O)N([C@@H](C)CO)C[C@@H]2C)cc1,inactive,inactive
C[C@@H]1CN([C@H](C)CO)C(=O)c2cc(NS(=O)(=O)c3ccccc3)ccc2O[C@H]1CN(C)Cc1ccc(-c2ccccc2)cc1,inactive,inactive

SMILES,cytotoxicity call (HSkMC),growth inhibition call (S. aureus RN4220)
C#CCN([C@H](/C=C/C1CC1)[C@@H](O)Cc1ccccc1)[C@@H](Cc1ccc(-n2cc(COc3ccccc3/C=C(C)/C=C/C(=O)NO)nn2)cc1)C(=O)OC,inactive,inactive
C[C@@H]1CN([C@@H](C)CO)S(=O)(=O)c2ccc(Br)cc2O[C@H]1CN(C)C(=O)C1CCCCC1,inactive,inactive
COc1ccc(CCNC(=O)[C@@H]2c3ccccc3C(=O)N(Cc3ccccc3OC)[C@H]2c2ccc(CO)cc2)cc1,inactive,inactive
CC1=C(C)C(=O)C(C(CCCCCC(=O)O)c2ccccc2)=C(C)C1=O (stereo unspecified),inactive,inactive
O=C(C[C@H]1C=C[C@@H](NC(=O)C2CC2)[C@@H](CO)O1)NCCCN1CCOCC1,inactive,inactive
C[C@H]1CCCCO[C@H](CN(C)S(=O)(=O)c2cn(C)cn2)[C@@H](C)CN([C@@H](C)CO)C(=O)c2cc(NC(=O)CCCN(C)C)ccc2O1,inactive,inactive
Cn1cc(S(=O)(=O)Nc2ccc3c(c2)OCCO3)c(=O)n(C)c1=O,inactive,inactive
CC(C)NC(=O)Nc1ccc2c(c1)C(=O)N([C@H](C)CO)C[C@H](C)[C@H](CN(C)Cc1ccc(C(F)(F)F)cc1)OCCCC[C@H](C)O2,inactive,inactive
O=C1NC(=O)[C@@H](c2ccccc2)N1,inactive,inactive
Cc1noc(C)c1NC(=O)Nc1ccc2c(c1)CC(=O)N([C@H](C)CO)C[C@H](C)[C@H](CN(C)S(=O)(=O)c1cn(C)cn1)O2,inactive,inactive
Cc1noc(C)c1NC(=O)Nc1ccc2c(c1)C(=O)N([C@H](C)CO)C[C@H](C)[C@H](CN(C)S(=O)(=O)c1ccc(F)cc1)OCCCC[C@H](C)O2,inactive,inactive
C[n+]1ccn(C[C@@]2(C)[C@H](C(=O)O)N3C(=O)C[C@H]3S2(=O)=O)n1,inactive,active
CC(C)NC(=O)N(C)C[C@H]1Oc2c(NS(=O)(=O)c3ccc(F)cc3)cccc2C(=O)N([C@H](C)CO)C[C@H]1C,inactive,inactive
C[C@@H]1CN([C@@H](C)CO)C(=O)c2cc(C#Cc3cccc(F)c3)cnc2O[C@H]1CN(C)Cc1ccccn1,inactive,inactive
CC(C)NC(=O)N(C)C[C@H]1Oc2ccc(NC(=O)Cc3ccccc3)cc2C(=O)N([C@H](C)CO)C[C@H]1C,inactive,inactive
CO[C@@H]1CN(C)C(=O)c2cc(NC(=O)C3CCCC3)ccc2OC[C@@H](C)N(C(=O)Nc2ccc(C(F)(F)F)cc2)C[C@H]1C,inactive,inactive
C[C@@H]1CN([C@@H](C)CO)C(=O)c2cc(NC(=O)C3CCCCC3)ccc2O[C@H]1CN(C)Cc1ccc(-c2ccccc2)cc1,inactive,inactive
C[C@H](CO)N1C[C@H](C)[C@H](CN(C)C(=O)Nc2cccc3ccccc23)Oc2c(NC(=O)c3nc4ccccc4s3)cccc2C1=O,inactive,inactive
C[C@@H]1CCCCO[C@@H](CN(C)C(=O)CCC(F)(F)F)[C@H](C)CN([C@H](C)CO)C(=O)c2cc(NC(=O)NC3CCCCC3)ccc2O1,inactive,inactive
COc1ccc(CN(C)C[C@@H]2Oc3ccc(NC(=O)CCCN(C)C)cc3C(=O)N([C@@H](C)CO)C[C@H]2C)cc1,inactive,inactive

SMILES,cytotoxicity call (HSkMC),growth inhibition call (S. aureus RN4220)
O=C(C[C@@H]1CC[C@H]2[C@@H](COC[C@@H](O)CN2S(=O)(=O)c2cccc(F)c2)O1)NCc1ccncn1,inactive,inactive
C[C@@H]1CCCCO[C@@H](CN(C)Cc2ccc(C(F)(F)F)cc2)[C@H](C)CN([C@H](C)CO)C(=O)c2cc(NC(=O)Nc3ccc(C(F)(F)F)cc3)ccc2O1,inactive,inactive
C[C@@H]1ON(c2ccc(I)cc2)[C@H](c2ccc(OC(=O)OC(C)(C)C)cc2)[C@H]1C(=O)N1C(=O)OC[C@H]1Cc1ccccc1,inactive,inactive
CC(C)NC(=O)Nc1cccc2c1O[C@@H](CN(C)Cc1ccc(Oc3ccccc3)cc1)[C@H](C)CN([C@H](C)CO)C2=O,inactive,inactive
CCOC(=O)[C@H](CCc1ccccc1)N[C@@H](C)C(=O)N1C(=O)N(C)C[C@H]1C(=O)O,inactive,inactive
C[C@@H]1CCCCO[C@H](CN(C)Cc2ccc(C(F)(F)F)cc2)[C@@H](C)CN([C@@H](C)CO)C(=O)c2cc(NS(=O)(=O)c3cccs3)ccc2O1,inactive,inactive
C=CCN1C(=O)[C@@]2(O[C@@H](CCn3cc(CCO)nn3)[C@H]([Si](C)(C)c3ccc(OC)cc3)[C@H]2C)c2cc(N3CCC3=O)ccc21,inactive,inactive
C[C@@H]1CN([C@@H](C)CO)C(=O)c2cc(NC(=O)C3CC3)ccc2O[C@@H]1CN(C)S(=O)(=O)c1ccc(Cl)cc1,inactive,inactive
C[C@H]1CN([C@@H](C)CO)C(=O)c2cccc(NC(=O)C3CC3)c2O[C@@H]1CN(C)C(=O)NC1CCCCC1,inactive,inactive
C[C@H](CO)N1C[C@H](C)[C@H](CN(C)S(=O)(=O)c2cccs2)OCCCC[C@H](C)Oc2ccc(NC(=O)Nc3ccc(F)cc3)cc2C1=O,inactive,inactive
C[C@@H]1CN([C@@H](C)CO)C(=O)c2cc(NC(=O)NC3CCCCC3)ccc2O[C@@H](C)CCCCO[C@@H]1CN(C)S(=O)(=O)c1cccs1,inactive,inactive
Cn1cnc(S(=O)(=O)N2C[C@H](O)COC[C@H]3O[C@@H](CC(=O)NCc4cc(F)cc(F)c4)CC[C@@H]32)c1,inactive,inactive
Cn1c(=O)c(C(=O)NCCO)c(O)c2ccccc21,inactive,inactive
C[C@H](CO)N1C[C@H](C)[C@H](CN(C)Cc2cccc(C(F)(F)F)c2)Oc2ncc(-c3ccc(F)cc3)cc2C1=O,inactive,inactive
C[C@H]1CN([C@@H](C)CO)C(=O)c2cccc(NC(=O)C3CCOCC3)c2O[C@@H]1CN(C)S(=O)(=O)c1ccc(F)cc1,inactive,inactive
O=C(O)Cn1cccn1,inactive,inactive
O=[N+]([O-])c1ccc(/C=C/CN(C/C=C/c2ccc([N+](=O)[O-])cc2)CCNS(=O)(=O)c2cccc3cnccc23)cc1,inactive,inactive
O=C(c1ccccc1)N1Cc2ccccc2[C@H]2OC(c3ccc(OCCCO)cc3)=N[C@@]2(Cc2ccccc2)C1=O,inactive,inactive
